According to PubChem BioAssay AID504339 (National Center for Advancing Translational Sciences (NCATS), 2011):
The campaign covered roughly 390,000 compounds. About 17,000 (4.4%) were called active. Inconclusive results, whose numbers are uncertain, are shown with a selection of clear calls. Calls follow the shape of the dose curve; as a rule, active = well fitted inhibition curve with a large enough effect; inconclusive = small, poorly fitted or top-dose-only effect; inactive = no such curve, though single readings can be large or run the other way. Where the call is inconclusive, the potency comes from a doubtful curve fit.

target: Lysine-specific demethylase 4A (Homo sapiens) (UniProt O75164); test: qHTS Assay for Inhibitors of JMJD2A-Tudor Domain; conditions: AlphaScreen JMJD2A-Tudor / H3K4me3 peptide binding; activity change, negative = inhibition: at 114 µM (top of the series); also: nearly all actives have a fitted effect of over 50% in size
% is scaled to controls: 0 for no effect and ±100 for the full control effect; potency is read from the fitted curve at half-maximal effect; tags tell the direction and shape of the fitted curve.

Chain of UniProt O75164 (O75164 whole entry, looked up, the tested form may be a part): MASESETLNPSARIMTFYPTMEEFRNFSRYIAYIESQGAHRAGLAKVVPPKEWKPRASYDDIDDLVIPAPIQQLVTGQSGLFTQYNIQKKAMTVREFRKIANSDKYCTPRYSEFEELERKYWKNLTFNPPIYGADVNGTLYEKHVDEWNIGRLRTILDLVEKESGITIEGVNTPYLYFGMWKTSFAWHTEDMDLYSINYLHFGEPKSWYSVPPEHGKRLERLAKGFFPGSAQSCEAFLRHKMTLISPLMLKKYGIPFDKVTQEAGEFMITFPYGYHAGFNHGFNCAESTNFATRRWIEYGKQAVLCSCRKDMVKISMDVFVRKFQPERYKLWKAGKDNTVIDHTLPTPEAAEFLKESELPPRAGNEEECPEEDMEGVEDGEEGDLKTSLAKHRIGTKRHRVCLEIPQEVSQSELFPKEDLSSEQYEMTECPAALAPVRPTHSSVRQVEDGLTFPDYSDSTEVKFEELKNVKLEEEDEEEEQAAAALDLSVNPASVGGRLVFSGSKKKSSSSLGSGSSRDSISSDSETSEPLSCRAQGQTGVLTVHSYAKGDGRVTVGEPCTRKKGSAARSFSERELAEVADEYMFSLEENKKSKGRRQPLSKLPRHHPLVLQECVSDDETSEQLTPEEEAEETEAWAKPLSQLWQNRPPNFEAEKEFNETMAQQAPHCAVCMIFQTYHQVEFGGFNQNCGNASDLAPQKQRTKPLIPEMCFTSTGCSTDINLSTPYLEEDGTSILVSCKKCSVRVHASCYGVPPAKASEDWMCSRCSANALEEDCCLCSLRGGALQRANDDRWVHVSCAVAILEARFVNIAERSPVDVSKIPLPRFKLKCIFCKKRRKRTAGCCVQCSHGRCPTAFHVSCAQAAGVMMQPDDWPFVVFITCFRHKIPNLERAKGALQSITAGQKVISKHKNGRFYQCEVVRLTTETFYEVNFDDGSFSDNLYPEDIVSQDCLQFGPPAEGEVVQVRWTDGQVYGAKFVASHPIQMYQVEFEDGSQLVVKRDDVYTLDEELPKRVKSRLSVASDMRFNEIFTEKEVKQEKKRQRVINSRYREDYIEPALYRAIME

SMILES	activity change, negative = inhibition	Potency
CCOC(=O)c1c(-c2ccc3ccccc3c2)csc1NC(=O)CCCC(=O)O	inactive: -19.3%	
Cc1cc(C)cc(N(CCC#N)C(=O)COC(=O)CCc2c[nH]c3ccccc23)c1		inconclusive: 22.4 µM [inhibitor, full curve]
O=C(COc1ccc(-c2nnco2)cc1)NCc1ccccc1Cl	inactive: -22%	
CCCCc1oc2ccccc2c1C(=O)c1cc(I)c(N(CC)CCOCC)c(I)c1		active: 56.2 µM
CCc1nnc(NC(=O)CSc2nc3[nH]ncc3c(=O)[nH]2)s1	inactive: -8.39%	
COc1ccccc1C1CCN(Cc2cccc([N+](=O)[O-])c2)CC1		inconclusive: 44.7 µM [inhibitor, partial curve]
CCOC(=O)c1c(NC(=O)C(C)Sc2cn(CCNC(=O)c3ccc(OC)c(OC)c3)c3ccccc23)sc2c1CCC2 (stereo unspecified)		inconclusive: 15.8 µM [inhibitor, full curve]
COc1cc2c(C#Cc3cccnc3)c(-c3ccsc3)oc(=O)c2cc1OC		inconclusive: 79.4 µM [inhibitor, partial curve]
O=C(O)CCC(=O)Nc1ccc(Cc2ccc(NC(=O)CCC(=O)O)c(O)c2)cc1O		inconclusive: 89.1 µM [inhibitor, single point]
COc1cc(C#Cc2c(-c3cncn3C)n(C)c3ccc(-c4cc(OC)c(OC)c(OC)c4)cc23)cc(OC)c1		inconclusive: 12.6 µM [inhibitor, partial curve]
Cc1ccc(S(=O)(=O)N2[C@@H](c3ccc(C(C)(C)C)cc3)C(C(=O)O)=CC[C@H]2c2ccc3c(c2)OCO3)cc1		inconclusive: 89.1 µM [inhibitor, partial curve]
Oc1c(N=NC(=S)Nc2ccccc2F)c2ccccc2n1Cc1ccccc1F		inconclusive: 3.16 µM [inhibitor, full curve]
COc1cccc(C2CC(c3ccccc3)=NN2S(=O)(=O)c2ccccc2)c1OC (stereo unspecified)		inconclusive: 50.1 µM [inhibitor, partial curve]
Cc1cccc(-c2nc3c4ccccc4nc(NCc4ccccc4Cl)n3n2)c1	inactive: 2.91%	
COc1ccc(CNC2CCCc3ccccc32)cc1OC (stereo unspecified)		active: 11.2 µM
O=C(O)C(c1ccccc1)C(O)C1CC=CCC1 (stereo unspecified)	inactive: -13%	
CCOc1ccc(/C(O)=C2/C(=O)C(=O)N(CC3CCCO3)C2c2ccc(C)o2)cc1 (stereo unspecified)		inconclusive: 79.4 µM [inhibitor, single point]
Cc1ccc(NS(=O)(=O)c2ccc3c4c(cccc24)C(=O)N3)c(C)c1	inactive: -35.3%	
O=C(CCn1c(=O)oc2ccccc21)Nc1ccc(N2CCOCC2)cc1	inactive: -11.9%	
O=C(CN1CCCCCC1)Nc1ccc(Br)cc1[N+](=O)[O-]		active: 44.7 µM
CCCC1(C(=O)OC)NC(c2ccc(OC)c(OC)c2)C2C(=O)N(c3ccc4c(c3)OCO4)C(=O)C21 (stereo unspecified)	inactive: -9.56%	
COc1ccccc1C(=O)Nc1ccc(OCC(=O)N2CC(C)OC(C)C2)cc1 (stereo unspecified)	inactive: -1.01%	
OCCNCCOCCOc1ccccc1-c1ccccc1		active: 3.16 µM
O=C(O)c1cc(S(=O)(=O)O)cc(Nc2c3ccccc3nc3ccccc23)c1O		inconclusive: 35.5 µM [inhibitor, single point]

SMILES	activity change, negative = inhibition	Potency
CC1=C(c2ccc(C)cc2)S(=O)(=O)N=C1N1CCN(c2ccccc2)CC1		inconclusive: 63.1 µM [inhibitor, partial curve, poor fit]
Cc1ccc(NC(=O)CCc2nc3sc4c(c3c(=O)[nH]2)CCCC4)nc1		inconclusive: 35.5 µM [inhibitor, partial curve]
COc1ccc(NC(=O)CSc2oc(-c3ccc(C)cc3)nc2S(=O)(=O)c2ccc(C)cc2)c(OC)c1		active: 56.2 µM
CCN(CCCNC(=O)c1cc2cc3cc(OC)ccc3nc2s1)c1cccc(C)c1		inconclusive: 2.51 µM [inhibitor, full curve, poor fit]
Cc1cc2c(cc3c(SCc4ccc(Cl)cc4)nnc(C)n32)o1		inconclusive: 12.6 µM [inhibitor, full curve]
COc1ccccc1Nc1nnc(SCC(=O)N2CC(=O)Nc3ccccc32)s1	inactive: -17.5%	
S=c1[nH]ccn1-c1ccc(Cl)cc1		active: 10 µM
CSCCC(NS(=O)(=O)c1ccc2c(c1)oc(=O)n2C)C(=O)N1CCN(c2cc(Cl)ccc2C)CC1 (stereo unspecified)	inactive: -22.4%	
c1ccc(COc2ccc(CN3CCN(c4ccccn4)CC3)cc2)cc1		inconclusive: 56.2 µM [inhibitor, partial curve, poor fit]
COc1ccc(NC(=S)NCc2ccc(S(N)(=O)=O)cc2)cc1OC		inconclusive: 89.1 µM [inhibitor, single point]
CCc1ccc(/C=C2/SC(=S)N(CCC(=O)Nc3cccc(C(=O)O)c3)C2=O)cc1		active: 50.1 µM
CCOC(=O)c1[nH]cnc1C(=O)Nc1ccccc1C		inconclusive: 8.91 µM [inhibitor, full curve, poor fit]
CCOc1ccc(S(=O)(=O)N2CCN(C(=O)c3cc(C4CC4)nn3-c3ccccc3)CC2)cc1		inconclusive: 31.6 µM [inhibitor, partial curve]
CCN(C[C@H]1N[C@@](CC)(C(=O)OC)[C@H]2C(=O)N(C)C(=O)[C@@H]12)S(=O)(=O)c1ccc(OC)cc1		inconclusive: 89.1 µM [inhibitor, single point]
CCc1ccc(NC(=S)Nc2cc(OC)c(NC(=O)C(C)C)cc2OC)cc1		inconclusive: 56.2 µM [inhibitor, partial curve]
CC(/C=C1\SC(=S)N(c2ccc(C(=O)O)cc2)C1=O)=C\c1ccccc1		active: 44.7 µM
COc1ccc(/C=N/N2C(=O)CSC2=S)cc1		inconclusive: 63.1 µM [inhibitor, partial curve, poor fit]
CN(Cc1cnn(C)c1)Cc1nc(COc2ccccc2)no1		inconclusive: 22.4 µM [inhibitor, full curve, poor fit]
O=C(Nc1nc2c(Cl)ccc(Cl)c2s1)C1CC1	inactive: -9.15%	
CCC(=O)Nc1ccc(N2CCOCC2)c(S(=O)(=O)Nc2ccc(Cl)cc2)c1		active: 79.4 µM
NC1CCCCC1N=Cc1c(O)n(CCc2ccc(F)cc2)c(=O)[nH]c1=O (stereo unspecified)	inactive: -19.6%	
Cc1cccc(C)c1-n1nnnc1SCC(=O)c1c(N)n(C2CC2)c(=O)[nH]c1=O	inactive: 4.25%	
O=c1[nH]c(CN2CCN(c3ccccc3)CC2)nc2ccccc12	inactive: -15.4%	
COc1ccc(C(=O)N2CCN(CCc3ccccc3)CC2)cc1[N+](=O)[O-]	inactive: -13.2%	

SMILES	activity change, negative = inhibition	Potency
Cc1nnc2sc(-c3ccc(NC(=O)c4ccc(-c5ccc(Cl)cc5Cl)o4)cc3)nn12		inconclusive: 56.2 µM [inhibitor, partial curve]
CN(Cc1ccccc1F)Cc1cc(=O)oc2cc(O)c(Cl)cc12	inactive: -2.1%	
Cc1ccccc1OCC(=O)N/N=C/c1cccn1C	inactive: 7.63% [at 11.4 µM]	
CCCCCSc1ncccc1C(=O)O	inactive: -3.61%	
Cc1c(C(=O)Nc2ccncc2)sc2nc(-c3ccccc3)cn12		inconclusive: 89.1 µM [inhibitor, partial curve, poor fit]
Nc1ccc(N2CCN(c3ccccc3)CC2)c(F)c1		inconclusive: 56.2 µM [inhibitor, partial curve, poor fit]
Oc1ccc(F)c2cccnc12		active: 10 µM
CCN1CCN(c2cc(C)c3cc(NC(=S)N4CCCC(C)C4)ccc3n2)CC1 (stereo unspecified)		inconclusive: 79.4 µM [inhibitor, partial curve]
CC(C)c1ccc(N(C(=O)CNC(=O)c2ccco2)C(C(=O)NC2CCCC2)c2cccnc2)cc1 (stereo unspecified)		inconclusive: 100 µM [inhibitor, partial curve]
COc1cc(-c2nc(S(=O)(=O)c3ccc(Br)cc3)c(N3CCOCC3)o2)cc(OC)c1OC		inconclusive: 20 µM [inhibitor, full curve]
O=C(c1cccs1)N1CCN(Cc2ccccc2)CC1	inactive: 0%	
COc1ccc(NC(=O)Nc2ccon2)c(OC)c1	inactive: 1.34%	
CN(C)c1ccc(NC(=O)Nc2csc3ccccc23)cc1		inconclusive: 14.1 µM [inhibitor, full curve]
COc1ccc(CCNC(=O)C/C(C)=N/NC(=O)c2ccc([N+](=O)[O-])cc2Cl)cc1OC	inactive: -2.01%	
COc1ccc(NC2CCCN(C(=O)CCc3cccc(F)c3)C2)cc1 (stereo unspecified)		inconclusive: 50.1 µM [inhibitor, partial curve]
CCOC(=O)N1CCN(S(=O)(=O)c2ccc(C(=O)Nc3nc4c(s3)CC(C)CC4)cc2)CC1 (stereo unspecified)	inactive: -15.7%	
CCOc1ccc(-c2cn(S(=O)(=O)c3cccc4nsnc34)nc2N)cc1		inconclusive: 20 µM [inhibitor, full curve]
COCOc1cc(O)c2c(=O)c(OCOC)c(-c3ccc(OCOC)c(OCOC)c3)oc2c1		inconclusive: 50.1 µM [inhibitor, partial curve]
N#Cc1c(NC(=O)C2CC=CCC2C(=O)O)sc2c1CCCCCC2 (stereo unspecified)		inconclusive: 79.4 µM [inhibitor, single point]
O=C(O)Cc1sc(Nc2cccc3ccccc23)nc1-c1ccccc1		inconclusive: 56.2 µM [inhibitor, partial curve]
COc1ccc(C(=O)Nc2ccccc2N2CCCCC2)cc1[N+](=O)[O-]		inconclusive: 31.6 µM [inhibitor, full curve, poor fit]
C=CCn1c(SCc2ccc(C(=O)Nc3nccs3)cc2)nnc1-c1ccc(C)c(Cl)c1		inconclusive: 28.2 µM [inhibitor, single point]
COc1ccc2[nH]c3c(N4CCN(Cc5ccc6c(c5)OCO6)CC4)ncnc3c2c1		inconclusive: 31.6 µM [inhibitor, full curve]
